# The campaign covered roughly 310,000 compounds. About 2,200 (0.71%) showed an effect of 50% or more. The effect is printed as a negative number. The list shows a part of the results.
# Target: human ether-à-go-go-related gene (hERG) potassium channel (human, UniProt Q12809)
# Assay: primary screen, population patch clamp on CHO cells stably expressing hERG
# Sequence of human ether-à-go-go-related gene (hERG) potassium channel (Q12809 whole entry, looked up): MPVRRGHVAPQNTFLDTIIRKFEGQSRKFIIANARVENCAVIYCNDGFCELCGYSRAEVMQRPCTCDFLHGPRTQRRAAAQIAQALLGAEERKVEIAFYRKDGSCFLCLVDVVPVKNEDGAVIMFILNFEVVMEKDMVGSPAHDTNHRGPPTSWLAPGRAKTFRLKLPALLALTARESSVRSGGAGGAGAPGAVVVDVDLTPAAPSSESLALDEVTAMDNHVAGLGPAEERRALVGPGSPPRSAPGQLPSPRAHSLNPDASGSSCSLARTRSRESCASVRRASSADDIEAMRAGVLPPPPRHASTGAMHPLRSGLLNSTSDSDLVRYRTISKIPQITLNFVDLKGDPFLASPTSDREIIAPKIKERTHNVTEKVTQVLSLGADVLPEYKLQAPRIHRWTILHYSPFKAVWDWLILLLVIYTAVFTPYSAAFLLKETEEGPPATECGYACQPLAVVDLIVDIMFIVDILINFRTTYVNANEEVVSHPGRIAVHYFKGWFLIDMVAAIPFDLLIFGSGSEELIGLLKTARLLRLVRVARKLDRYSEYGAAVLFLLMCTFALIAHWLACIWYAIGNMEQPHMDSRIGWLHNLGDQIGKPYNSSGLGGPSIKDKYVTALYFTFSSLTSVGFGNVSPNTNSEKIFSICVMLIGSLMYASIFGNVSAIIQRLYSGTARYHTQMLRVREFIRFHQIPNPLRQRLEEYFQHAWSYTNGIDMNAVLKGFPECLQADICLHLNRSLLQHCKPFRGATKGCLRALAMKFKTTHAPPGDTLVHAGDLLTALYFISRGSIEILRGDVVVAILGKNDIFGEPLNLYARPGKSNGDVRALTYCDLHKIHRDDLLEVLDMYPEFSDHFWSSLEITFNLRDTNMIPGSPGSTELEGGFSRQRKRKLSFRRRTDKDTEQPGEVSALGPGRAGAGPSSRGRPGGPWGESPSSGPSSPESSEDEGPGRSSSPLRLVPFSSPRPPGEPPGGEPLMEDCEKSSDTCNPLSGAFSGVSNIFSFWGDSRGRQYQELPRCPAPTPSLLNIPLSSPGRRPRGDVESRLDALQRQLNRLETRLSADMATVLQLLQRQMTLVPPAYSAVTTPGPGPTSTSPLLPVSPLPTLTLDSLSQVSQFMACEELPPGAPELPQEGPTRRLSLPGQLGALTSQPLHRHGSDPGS
row,Compound,"hERG current change (%, negative = inhibition) at 1uM [%]"
1,O=C(N/N=C/C(Br)=C/c1ccccc1)c1cccnc1,-0.267
2,CC1=CCC(C(=O)O)(C(=O)N/N=C/c2cccs2)C(c2ccc([N+](=O)[O-])cc2)C1 (stereo not shown),-9.18
3,Cc1cc(=O)[nH]c(Nc2cccc(Br)c2)n1,13.9
4,CN(c1ccccc1C(=O)Nc1ccc(CC#N)cc1)S(=O)(=O)c1ccccc1,8.83
5,COc1ccc(S(=O)(=O)N2CCC(C(=O)NCCc3ccc4c(c3)OCO4)CC2)cc1,-1.99
6,COc1cc(NC(=O)c2ccc(OC)c([N+](=O)[O-])c2)ccc1NC(=O)c1ccco1,4.26
7,COc1cc(C(=O)Oc2ccccc2/C=N/NC(=O)c2ccc(Cl)cc2Cl)cc(OC)c1OC,5.63
8,O=C(Cc1ncc(C(F)(F)F)cc1Cl)NCc1ccco1,5.04
9,CCC(CC)c1nnc(NC(=O)c2cc(C(=O)OC)cc([N+](=O)[O-])c2)s1,11.7
10,CCN1CCN(C(CNS(=O)(=O)c2ccc(Cl)cc2)c2cccnc2)CC1 (stereo not shown),-10.6
11,S=C(NCC1CCCO1)Nc1cccc(Cl)c1 (stereo not shown),13.3
12,Cl.Fc1ccc(Nc2nc(NCc3ccco3)c3ccccc3n2)cc1,-2.26
13,O=C(Nc1ccc(N2CCOCC2)c(Cl)c1)c1cccc(-n2cnnc2)c1,16.5
14,CC(C)c1ccc(NC(=O)Cn2ncc3ccccc32)cc1,9.75
15,Cc1cccc(C(=O)NC(C)C(c2cccs2)N2CCOCC2)c1 (stereo not shown),7.59
16,COCCN1C(=O)C(=O)/C(=C(/O)c2ccc(OC(C)C)cc2)C1c1cccnc1 (stereo not shown),14.2
17,Cc1c(NC(=O)C2CCCN(S(=O)(=O)c3cnc[nH]3)C2)c(=O)n(-c2ccccc2)n1C (stereo not shown),14.8
18,Cc1cc(C)cc(C(=O)NCCN2CCOCC2)c1,15.8
19,COc1ccc(Cl)cc1N/C(N)=N/c1nc(CSc2ccc(C)cc2)cc(=O)[nH]1,9.62
20,C=CC(=O)NC1CC2CCC1(C)C2(C)C (stereo not shown),14.4
21,CC(C)CCc1noc(CN(C)CC2CCN(Cc3ccccc3)CC2)n1,-17.5
22,COCc1nc2ccccc2n1CCCOc1ccccc1,-1.6

row,Compound,"hERG current change (%, negative = inhibition) at 1uM [%]"
1,O=C(CNC(=O)c1ccccc1F)N/N=C/c1cc(Br)ccc1OCc1ccccc1,-0.264
2,Cc1cc(NC(=O)c2ccc(Br)cc2)nc(C)n1,5.36
3,O=C(CCCc1nc2ccccc2s1)NCc1ccccc1,-2.48
4,COC(=O)CCn1nnc(-c2cccs2)n1,2.71
5,NC(=O)[C@@H]1CCCN1Cc1nc(-c2cccs2)no1,9.8
6,Nc1ccc(SCCN2C(=O)c3ccccc3C2=O)cc1,8.91
7,COC(=O)c1ccc(-c2sc3nc(N4CCOCC4)c4c(c3c2N)CCCC4)o1,6.06
8,COc1ccc(-c2csc(NC(=O)CN3C(=O)C4CC=CCC4C3=O)n2)cc1OC (stereo not shown),10.2
9,CCOc1ccc(S(=O)(=O)N(C)C)cc1-c1nc2c(C(C)(C)C)nn(C)c2c(=O)[nH]1,13.5
10,C/C(CC(=O)Nc1ccc(N(C)C)cc1)=N\NC(=O)c1cnccn1,20
11,CCOC(=O)c1c(-c2ccccc2)nc2c(C)cccn12,-5.63
12,COc1cccc(NC(=S)NCCc2ccccn2)c1,16.4
13,CCOc1ccc(-n2cc(C(=O)Nc3cccc(OC)c3)c3cc(OC)c(OC)cc3c2=O)cc1,6.12
14,Cn1cccc1C(=O)OCC(=O)N1c2ccccc2NC(=O)C1(C)C,9.18
15,CCC(C)(C)C(=O)Nc1nnc(CCc2ccccc2)s1,6.76
16,CCOc1ccc(CCNC(=O)Cc2ccc(NC3=NC4CS(=O)(=O)CC4S3)cc2)cc1 (stereo not shown),17.7
17,CCCCNC(=O)N(O)C1N(/N=C/c2ccco2)C(=S)SC1(C)C (stereo not shown),4.84
18,O=C(c1cc2ncc(Br)cn2n1)N1CCN(C(=O)c2ccco2)CC1,-5.78
19,O=c1cc(Cc2nnc(SCc3ccccc3)n2-c2ccc(Cl)cc2)[nH]c(=O)[nH]1,3.9
20,Cc1cccc(N2CCN(C(=O)CCCSc3nc4ccccc4[nH]3)CC2)c1C,0.194
21,Cc1nc(Nc2ccc(S(N)(=O)=O)cc2)oc1C,4.52
22,O=C(NCc1ccc(C(F)(F)F)cc1)c1ccc2c(c1)S(=O)(=O)c1ccccc1C2=O,7.23

row,Compound,"hERG current change (%, negative = inhibition) at 1uM [%]"
1,Cc1ccc(NC(=O)C2CCN(c3cnccn3)CC2)cc1C,14
2,CNC(=S)N1N=C(c2ccc(C)cc2)CC1c1ccc(Cl)cc1 (stereo not shown),-4.07
3,CC(C)C(OC(=O)c1ccco1)C(=O)NC1CCCCC1 (stereo not shown),5.05
4,COc1ccc(NS(=O)(=O)c2cccc(NC(=O)CCC(=O)c3cccs3)c2)cc1,13.7
5,CCCC(=O)NC(c1ccccc1)c1c(O)ccc2ccccc12 (stereo not shown),13.3
6,Cc1ccc(C(OCC(O)CNC(CO)C(O)c2ccc([N+](=O)[O-])cc2)c2ccccc2)cc1 (stereo not shown),3.99
7,Cc1cc(O)c(N)c(C)c1Cl.Cl,11.1
8,COc1cccc(N(C(=O)Cn2nnc(-c3ccc(C)o3)n2)C(C(=O)NC(C)(C)C)c2cccs2)c1 (stereo not shown),6.14
9,C/C(=N\NC(=O)c1ccccc1C)c1cccc([N+](=O)[O-])c1,9.71
10,COc1ccccc1NC(=O)C/C(C)=N/NC(=O)COc1c(Br)cc(Br)cc1OC,10.8
11,Cc1ccccc1CN1CCN(C(C)C(=O)NCc2ccccc2)CC1 (stereo not shown),0.872
12,COc1ccc(-c2nc(N)n(C(=O)c3ccco3)n2)cc1,1.93
13,Cn1c(CCc2ccc(N)cc2)nc2ccccc21,-0.488
14,O=C(Nc1ccccc1)c1ccc(N2CCN(c3ccccc3)CC2)c(S(=O)(=O)N2CCOCC2)c1,-4.09
15,O=C(NCCNC1CCC(c2ccccc2)CC1)c1cccs1 (stereo not shown),6.95
16,CCOc1ccc(C(=O)C2CCN(CC(=O)Nc3nccs3)CC2)cc1,-46.4
17,CCc1nc(N2CCCC(C)C2)c2oc3ccccc3c2n1.Cl (stereo not shown),9.52
18,Cc1nc2ccsc2c(=O)n1-c1ccc(Cl)cc1,10
19,O=C(CCCl)N1CCN(c2nc(-c3ccccc3)cs2)CC1,7.98
20,O=C(NCc1ccco1)C1Cc2ccccc2CN1C(=O)c1ccco1 (stereo not shown),5.38
21,COc1cc2c(cc1OC)-c1cc(NC3CCCC3)nc(=O)n1CC2,13.4
22,O=C(Cc1ncc(C(F)(F)F)cc1Cl)N1CCN(c2ccc(F)cc2)CC1,-14.4

row,Compound,"hERG current change (%, negative = inhibition) at 1uM [%]"
1,CCOc1ccc(N(CC(=O)NCc2ccccc2)S(C)(=O)=O)cc1,-0.437
2,CC(NCc1ccc(S(N)(=O)=O)cc1)C(=O)Nc1cccc(Cl)c1 (stereo not shown),5.24
3,O=C(NCCCN1CCCC1=O)c1cccc(S(=O)(=O)N2CCN(c3ccccc3)CC2)c1,-0.597
4,CN(CC(=O)NCc1ccco1)S(=O)(=O)c1ccc2c(c1)n(C)c(=O)c(=O)n2C,2.82
5,CC(=O)c1ccc(S(=O)(=O)N2CCCC2)cc1,2.46
6,CCS(=O)(=O)N1CCN(C2Cc3ccccc3C2)CC1.O=C(O)C(=O)O,5.16
7,C=CCOc1ccc(/C=N/NC(=O)CN2CCOCC2)cc1OCC,19.5
8,CSc1nccc(Oc2ccc(C#N)cc2)n1,6.42
9,C/C(=N\OCC(=O)Nc1nc2ccccc2s1)c1ccccc1,2.13
10,COC(=O)C1=C(c2ccc(F)cc2OCc2ccccc2)C[C@@H]2CC[C@H]1N2C(=O)NCc1cccc(C(F)(F)F)c1,4.62
11,Cc1nn(-c2ccc(Cl)cc2)c(Cl)c1/C=N/NC(=O)c1ccc(NS(=O)(=O)c2cccs2)cc1,12
12,Cc1ccc(CNC(=O)CCC2CCCN(Cc3cc4ccccc4o3)C2)o1 (stereo not shown),-36.8
13,CCC1CCCCN1C(=S)NC(=O)c1cccc([N+](=O)[O-])c1 (stereo not shown),17.7
14,C[C@H](NC(=O)C1CCN(S(=O)(=O)c2ccccc2)CC1)C(=O)NCc1ccc(Cl)cc1Cl,7.77
15,Cc1nnc(C)n1/N=C/c1ccc(O)cc1,4.83
16,Cc1c(Cl)c(C(F)(F)F)nn1CC(=O)NCc1ccco1,14.5
17,COc1cccc(-n2c(C)c(C(C)=O)c(C(C)=O)c2C)c1,3.89
18,CCOC(=O)c1sc(NC(C)=O)nc1-c1ccccc1,12.8
19,COc1ccc(N2CSC3=C(C#N)C(c4cc(OC)ccc4OC)CC(=O)N3C2)c(OC)c1 (stereo not shown),12.8
20,Cc1ccccc1NC(=O)C1c2cccc[n+]2CC(=O)N1c1c(C)cccc1C.[I-] (stereo not shown),9.62
21,OC[C@@H]1CCCN1Cc1nc(-c2cccs2)no1,10.5
22,CN(C)CCn1c(NC(=O)c2ccc(Cl)cc2)nc2ccccc21,-4.94
